Publication PMC4336329 (PLoS ONE, 2015)
Out of some 310,000 compounds screened, about 2,200 (0.71%) showed an effect of 50% or more. The effect is printed as a negative number. The list shows a part of the results.

target: human ether-à-go-go-related gene (hERG) potassium channel (human, UniProt Q12809); assay: primary screen, population patch clamp on CHO cells stably expressing hERG
Sequence (Q12809 whole entry, looked up): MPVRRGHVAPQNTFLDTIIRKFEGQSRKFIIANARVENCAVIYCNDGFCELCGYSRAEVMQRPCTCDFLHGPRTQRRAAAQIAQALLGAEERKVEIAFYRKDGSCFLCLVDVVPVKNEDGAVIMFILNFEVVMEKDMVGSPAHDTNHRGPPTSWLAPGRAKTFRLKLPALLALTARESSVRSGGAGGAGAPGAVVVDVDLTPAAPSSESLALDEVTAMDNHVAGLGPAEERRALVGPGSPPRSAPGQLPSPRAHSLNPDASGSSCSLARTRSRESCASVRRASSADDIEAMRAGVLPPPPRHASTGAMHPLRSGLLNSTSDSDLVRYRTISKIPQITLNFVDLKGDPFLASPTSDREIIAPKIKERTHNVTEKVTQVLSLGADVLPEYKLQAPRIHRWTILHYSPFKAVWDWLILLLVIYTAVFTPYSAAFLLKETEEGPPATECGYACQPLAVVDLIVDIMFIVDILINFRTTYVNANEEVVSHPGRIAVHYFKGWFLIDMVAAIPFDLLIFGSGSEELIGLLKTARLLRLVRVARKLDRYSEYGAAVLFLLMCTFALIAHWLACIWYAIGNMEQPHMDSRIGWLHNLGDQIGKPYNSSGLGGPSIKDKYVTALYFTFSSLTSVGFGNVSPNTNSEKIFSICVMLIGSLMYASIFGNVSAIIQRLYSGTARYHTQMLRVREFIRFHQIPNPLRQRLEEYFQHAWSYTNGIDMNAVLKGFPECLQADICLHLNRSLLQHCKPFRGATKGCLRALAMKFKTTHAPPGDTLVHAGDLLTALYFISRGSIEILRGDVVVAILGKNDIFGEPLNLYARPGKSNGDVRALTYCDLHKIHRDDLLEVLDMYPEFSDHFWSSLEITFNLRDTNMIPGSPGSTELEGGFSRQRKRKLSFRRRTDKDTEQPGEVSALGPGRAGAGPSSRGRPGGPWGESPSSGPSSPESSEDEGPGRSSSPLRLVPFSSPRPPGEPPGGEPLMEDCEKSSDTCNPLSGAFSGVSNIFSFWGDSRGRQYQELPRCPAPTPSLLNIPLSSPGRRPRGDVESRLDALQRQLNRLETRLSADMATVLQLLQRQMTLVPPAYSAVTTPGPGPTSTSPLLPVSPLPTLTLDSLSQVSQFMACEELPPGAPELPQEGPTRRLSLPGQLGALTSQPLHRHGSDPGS

SMILES	hERG current change (%, negative = inhibition) at 1uM [%]
COCCCNC(=O)c1ccc(C(=O)NCCCOC)cc1	-0.0011
CCN(CC)C(=O)c1oc2ccc(S(=O)(=O)N3CC(C)CC(C)C3)cc2c1C (centres unmarked)	12.9
O=c1oc2cc(Oc3ccc(C(F)(F)F)cc3[N+](=O)[O-])ccc2c2c1CCC2	5.4
CC1CN(S(=O)(=O)c2ccc(NC(=O)c3cc(-c4ccccc4O)n[nH]3)cc2)CC(C)O1 (centres unmarked)	12
CCc1nn(CC(=O)NCCc2ccc(Cl)cc2)c(=O)c2cccn12	0.907
COc1cccc(/C=N/NC(=O)c2ccc(=O)n(C)c2)c1OC	16.6
Nc1c(Cl)c(Cl)nc(C(=O)OCC(=O)NCc2ccccc2)c1Cl	10.7
C=CCN=Cc1sc2ccc(OCC)cc2c1O	14.9
O=C(CCNS(=O)(=O)c1cccc2nonc12)Nc1ccc(Cl)cc1	10.1
O=C(NCc1ccc(F)cc1)C(=O)Nc1nc(C23CC4CC(CC(C4)C2)C3)cs1	8.67
CNC(=S)N(Cc1ccc2c(c1)OCO2)C1CC(=O)N(c2ccccc2)C1=O (centres unmarked)	3.61
COC(C)(C)[C@]12CC(O)(C(C)C)ON1[C@H]1CCCCC1N2O (some centres unmarked)	14.2
Oc1ccc(-c2nc3ncccn3c2Nc2ccc3c(c2)OCCO3)cc1	-0.353
Cc1csc2nc(CSc3nc4ccccc4o3)c(Br)n12	15.9
Cc1cc(C)c(C)c(C(=O)C2OC(=O)C(C)(C)C(=O)C2(C)C)c1C (centres unmarked)	7.42
Oc1ccc(Br)cc1-c1cc(-c2ccccc2Cl)[nH]n1	12.4
O=C1Nc2ccccc2C1Cc1ccccn1 (centres unmarked)	11.5
Cc1nc2ccc3nc(NC(=O)c4ccc(S(=O)(=O)N5CCOCC5)cc4)sc3c2s1	5.54
CC(Oc1c(Cl)cccc1Cl)C1=NCCN1.Cl (centres unmarked)	10.4
O=C(c1cc2nc(-c3ccco3)cc(C(F)(F)F)n2n1)N1CCN(c2ccccn2)CC1	2.13
Nc1ccccc1NC1=CC(=O)CC(c2ccccc2)C1 (centres unmarked)	6.33
CCC(C(=O)OCC(=O)N(C)c1c(N)n(Cc2ccccc2)c(=O)[nH]c1=O)c1ccccc1 (centres unmarked)	15.6

SMILES	hERG current change (%, negative = inhibition) at 1uM [%]
C=CCn1c(SCC(=O)N2CCCCC2)nnc1-c1ccncc1	5.93
CCc1ccc(N(C(=O)c2snc(C(N)=O)c2N)C(C(=O)NCC2CCCO2)c2ccco2)cc1 (centres unmarked)	5.88
CCOC(=O)C1CCCN(S(=O)(=O)c2cc(Br)cc3c2N(C(=O)CC)CC3)C1 (centres unmarked)	12
Cc1nc(-c2ccccc2)nc2[nH]c(-c3ccccc3)cc(=O)c12	-1.19
CCN1CCc2c(OCc3ccc(C)cc3)cccc2C1=O	1.27
COCCN(CCOC)S(=O)(=O)c1ccc(OC)cc1	14.9
CCn1cc(CN2CCC(C(=O)Nc3ccc(Oc4cccnc4)cc3)CC2)c(C)n1	4.08
Cc1occc1C(=O)N1CCN(c2ccc([N+](=O)[O-])cc2)CC1	-45.8
O=C(Cc1ccccc1)c1nnc(-c2ccccc2)o1	13.5
CCc1cc(=O)oc2cc(C)cc(OCC(=O)NC3CC3)c12	7.02
O=C(NCCc1ccccc1)c1ccc(CS(=O)(=O)Cc2ccccc2F)o1	-7.19
CCO[C@@H]1OC(C(=O)N2CCN(Cc3ccccc3)CC2)=C[C@H](c2csc3ccccc23)[C@H]1CCCO	8.19
COc1ccc(CCN2CC(O)=C(c3nc4ccccc4c(=O)[nH]3)C2=N)cc1OC	6.05
CCN(c1ccccc1)S(=O)(=O)c1cc(C(=O)NCc2ccco2)ccc1C	7.99
O=C(Nc1cccc(Cl)c1)N(Cc1nc2ccccc2c(=O)[nH]1)Cc1cccs1	0.998
Cc1cc(C)c2c(N)c(C(=O)Nc3nccs3)sc2n1	13
COc1ccc(S(=O)(=O)ON=C2CC(C)(C)N(C(C)=O)C(C)(C)C2)cc1	19.5
Cc1cc([N+](=O)[O-])ccc1NC(=O)COc1nsnc1N1CCOCC1	-7.59
O=P(COCCO)(c1ccccc1)c1ccccc1	3.27
CN1C(=O)/C(=C/c2ccccc2Cl)Sc2ccc(C(=O)N3CCCC3)cc21	8.85
Cc1cc(=O)n(CC(C)C)c(O)c1C#N	17.5
CC(=O)c1ccc(OC(=O)/C=C/c2ccccc2)cc1	12
